# Results as given in the supplement of paper PMC4166925.
# ± gives the standard deviation of the averaged measurements. Over roughly 33,000 sequences, “E-score (dimensionless, -0.5 to 0.5)” has its median near -0.049; the highest 2% begin near 0.37. The list shows a part of the results.
# System: T1, PmTbr T-box DNA-binding domain (GST fusion)
# T1 sequence: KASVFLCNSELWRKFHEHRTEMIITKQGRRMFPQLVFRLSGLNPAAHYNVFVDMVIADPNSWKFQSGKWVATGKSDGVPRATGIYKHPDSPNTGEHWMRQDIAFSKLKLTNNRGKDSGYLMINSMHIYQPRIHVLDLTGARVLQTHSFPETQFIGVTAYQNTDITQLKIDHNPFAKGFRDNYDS
# Assay: PBM E-score of 8-mer (E-score (dimensionless, -0.5 to 0.5)); Tbr is Tbrain of the sea star Patiria miniata (Pm) or the sea urchin Strongylocentrotus purpuratus (Sp); higher = stronger binding preference; most listed sequences are background and not binding sites
# Details: the construct has about 5 more residues each side
# Method in brief: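 Each ungapped 8-mer received an enrichment E-score from the Universal PBM Analysis Suite, averaged over duplicate arrays. The proteins were Tbr T-box DNA-binding domains, covering the whole T-box plus about five flanking residues, fused to GST and expressed in BL21 E. coli at 20 °C before glutathione affinity purification. Universal Agilent oligonucleotide arrays were made double-stranded by primer extension and incubated with 200 nM protein in PBS (pH 7.5). The arrays were then scanned and quantified, and every 8-mer was scored from probe intensities.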
row,Sequence,PBM E-score of 8-mer
1,CAGTACTG,-0.175 ± 0.0031
2,ATGGATGC,-0.231 ± 0.0052
3,ATTAACCG,-0.197 ± 0.074
4,TACTGGAA,-0.258 ± 0.066
5,AAGTTAGG,-0.187 ± 0.068
6,ACTCCATC,-0.101 ± 0.045
7,AGTGTCAG,0.384 ± 0.017
8,CTTAGGGA,-0.2515 ± 0.0014
9,ACTCGTCA,0.216 ± 0.011
10,ACTTCCCC,-0.0297 ± 0.13
11,TTCGACAA,0.1 ± 0.031
12,ACGTGCAT,0.145 ± 0.017
13,CTAGCACA,0.327 ± 0.024
14,CCCCAACG,0.199 ± 0.088
15,CGAGTAAC,0.00354 ± 0.017
16,GTGTATCA,-0.00951 ± 0.055
17,GGACCCTA,-0.21 ± 0.0083
18,GCTGCGGA,-0.0688 ± 0.029
19,CAGCACAC,0.185 ± 0.043
20,ACAACAAG,0.161 ± 0.023
21,ACGTGTAG,0.118 ± 0.015
22,ACCACGTG,0.169 ± 0.053
23,GCATCCCC,-0.0919 ± 0.051
24,GCATACAA,-0.193 ± 0.031
25,AACGGGAA,-0.0825 ± 0.017

row,Sequence,PBM E-score of 8-mer
1,GGACTCTA,-0.281 ± 0.019
2,ACGGCGAG,-0.0263 ± 0.026
3,ATATCGGG,-0.153 ± 0.03
4,AATGAAGT,-0.0296 ± 0.029
5,TCAAATGA,-0.203 ± 0.019
6,GAATAAAA,0.07 ± 0.053
7,CGTCGGTA,0.0302 ± 0.0035
8,AGTCACCC,-0.0493 ± 0.13
9,AGGGCAGC,0.00521 ± 0.064
10,AAACATGG,-0.239 ± 0.044
11,ATGCACAA,-0.011 ± 0.027
12,TCCTAAGA,-0.272 ± 0.12
13,GTTGTAAA,0.132 ± 0.0099
14,ATATGATG,-0.00711 ± 0.025
15,GCTTGATA,-0.135 ± 0.011
16,ACCAGCGC,0.0615 ± 0.063
17,TGTGATAA,0.406 ± 0.046
18,AAGTGCAA,0.343 ± 0.014
19,TGATTCAA,-0.148 ± 0.015
20,CACATGGA,0.141 ± 0.12
21,CAACCGGG,-0.0732 ± 0.013
22,TCGCCCAA,-0.0811 ± 0.07
23,ATGAATAC,-0.152 ± 0.022
24,ACGCGCGG,0.19 ± 0.031
25,ACAATCGA,0.057 ± 0.0036

row,Sequence,PBM E-score of 8-mer
1,TATACTGA,-0.209 ± 0.012
2,ACAAAGTG,0.2 ± 0.061
3,CTCATAGA,-0.102 ± 0.014
4,AGATAATG,-0.0716 ± 0.012
5,CGTTTGCC,-0.051 ± 0.062
6,ATGAGGAC,-0.403 ± 0.033
7,GCCATCGC,0.0801 ± 0.06
8,ATTATTAA,-0.0822 ± 0.023
9,CACGCCGG,0.213 ± 0.015
10,TGAAAAAA,-0.0298 ± 0.097
11,GCATCACC,0.252 ± 0.02
12,TTCCTAAA,-0.295 ± 0.04
13,GGTGACAA,0.47312 ± 1.4e-05
14,AGAAGTCC,0.0869 ± 0.022
15,CCGGCCGG,-0.086 ± 0.027
16,CTGAACGC,-0.0442 ± 0.051
17,CAATACGC,0.0538 ± 0.0064
18,AGGTGAGG,0.428 ± 0.013
19,CCCGGCAA,0.0288 ± 0.086
20,GCCCTGCC,0.0257 ± 0.0016
21,GCTTGCCA,0.185 ± 0.052
22,AGCGCGCT,0.0819 ± 0.0034
23,TCGGCGAA,-0.0298 ± 0.064
24,ACTACTAG,-0.15 ± 0.029
25,AGGTATTA,5e-06 ± 0.0054

row,Sequence,PBM E-score of 8-mer
1,ATTAAGTC,-0.233 ± 0.059
2,CATAATCG,-0.112 ± 0.03
3,CTACCGCA,0.0194 ± 0.041
4,AAGAGGTG,0.4261 ± 0.00096
5,ACTCTAAA,-0.1 ± 0.037
6,CTGAAGTC,-0.281 ± 0.071
7,CAAGAACA,-0.00474 ± 0.001
8,ATCTCCGC,-0.0197 ± 0.066
9,GGTATGTA,-0.1927 ± 0.0012
10,ACCCATCT,-0.0144 ± 0.026
11,CCACTTGC,0.158 ± 0.056
12,CGCAAAGC,-0.0712 ± 0.07
13,ACGAGGGA,-0.0369 ± 0.028
14,CTCCGAAA,-0.0688 ± 0.063
15,GAGATGGA,-0.2233 ± 0.0022
16,AAATGAAA,-0.000675 ± 0.0081
17,AGGCTTAA,-0.0924 ± 0.053
18,CGTCGGAA,-0.0307 ± 0.035
19,CGACTCGA,0.127 ± 0.0029
20,AGCCCATA,-0.141 ± 0.088
21,GACTGTGA,0.226 ± 0.0079
22,CTAGATGC,-0.0341 ± 0.036
23,AGGATTCC,-0.271 ± 0.03
24,GGCCGCCA,-0.0122 ± 0.039
25,CCATCTCC,-0.028 ± 0.048

row,Sequence,PBM E-score of 8-mer
1,AGCTCTTA,-0.242 ± 0.081
2,AGGAACCT,-0.16 ± 0.013
3,ATAGGCAA,-0.239 ± 0.018
4,ACTCGCTC,-0.0462 ± 0.042
5,ATGTTATA,-0.0814 ± 0.076
6,CTCAGGAA,-0.0745 ± 0.11
7,GATTAGGA,-0.247 ± 0.023
8,CTGAGACA,0.00251 ± 0.058
9,TTAAGCAA,-0.165 ± 0.013
10,AGTTTAAG,-0.0675 ± 0.0052
11,CCGCGTTA,0.112 ± 0.011
12,ATCCAGTG,-0.194 ± 0.025
13,GCCGGACA,-0.283 ± 0.1
14,ACGTCGGG,0.0241 ± 0.023
15,GCGCTCGA,-0.0432 ± 0.0033
16,TAATTCTA,-0.158 ± 0.0049
17,CTCCTGGA,-0.121 ± 0.006
18,AGATAGTC,-0.0975 ± 0.03
19,AAAAGGTT,-0.0316 ± 0.041
20,ATTCATCC,-0.239 ± 0.012
21,CAGTGATC,0.0318 ± 0.02
22,CCCTGAGG,-0.0476 ± 0.039
23,CCATAATA,-0.13 ± 0.1
24,TCTAGAGA,-0.0247 ± 0.0033
25,CGTATTAG,-0.0837 ± 0.007

row,Sequence,PBM E-score of 8-mer
1,GAATTACA,-0.107 ± 0.032
2,GCGGGAAA,0.0338 ± 0.0004
3,ATGTCGGA,-0.0551 ± 0.054
4,AGATCGAA,-0.0529 ± 0.024
5,GGCTGAAA,-0.122 ± 0.0051
6,CTCTCGCC,0.251 ± 0.015
7,AGTGGCCG,-0.0552 ± 0.03
8,CGTGACCC,0.0665 ± 0.017
9,GTTTCTTA,0.0867 ± 0.056
10,CCCATCGC,-0.0116 ± 0.037
11,ACGGTTAT,0.0253 ± 0.0073
12,CAATGAGA,-0.107 ± 0.036
13,ACCGTCCT,-0.11 ± 0.0051
14,CCTTGGAG,-0.183 ± 0.006
15,AAATTGGA,-0.0503 ± 0.068
16,ACCAGGTA,-0.0585 ± 0.034
17,AACGATTG,-0.0253 ± 0.067
18,AGGTAGTG,0.145 ± 0.01
19,GAGAAACA,0.146 ± 0.079
20,CGGAGGGA,-0.1 ± 0.014
21,CGGCCAAC,-0.109 ± 0.016
22,ATCCCTAA,-0.279 ± 0.043
23,GCAGCGGC,-0.0995 ± 0.015
24,AAAGCCGC,0.114 ± 0.069
25,GAGTGTGA,0.4754 ± 0.0017

row,Sequence,PBM E-score of 8-mer
1,CACACGTA,0.357 ± 0.0053
2,CCGTTGCG,-0.05 ± 0.12
3,AATTAAAT,-0.258 ± 0.05
4,CAGCCGAG,-0.0598 ± 0.015
5,CCATTTCC,-0.168 ± 0.014
6,GCGTTTTA,0.0664 ± 0.083
7,CACGATAC,0.0378 ± 0.017
8,AATAATAA,-0.195 ± 0.14
9,TCACGCCA,0.36 ± 0.028
10,GTCCAAGA,-0.183 ± 0.069
11,AGACTCCA,-0.285 ± 0.02
12,AAGTACCA,-0.139 ± 0.04
13,TAGTTGAA,-0.122 ± 0.071
14,TATAGGCA,-0.214 ± 0.016
15,AAGCTGGT,-0.0921 ± 0.0075
16,TGAAGCCA,-0.0702 ± 0.018
17,ATAACAGC,0.134 ± 0.038
18,CCACGTTC,0.0527 ± 0.00073
19,CTCTCAAA,0.0952 ± 0.0076
20,GGTAAGGA,-0.00604 ± 0.057
21,ATTGCTTG,0.0819 ± 0.015
22,CGTCCACC,-0.162 ± 0.0019
